From patent US20230174644A1 (published 2023) come the findings set out here.

The experiment concerns the target T1, Integrin β1 (endogenous, HMECs) (human, UniProt P05556).
T1 construct: Only the β1 chain was probed; the α chain that goes with it in the cells is not determined; also called integrin α5β1
Put plainly: immunoprecipitation with polyclonal antibodies against NL from HMECs, probing for integrin β1. The procedure: Since integrin was also reported to be a receptor for ES, it is interesting to test whether there is an interaction between NL and integrin. Among the integrin family, integrin α5β1 was reported to be the receptor for ES by Rehn et al. and Sudhakar et al., therefore, colocalization between cell surface NL and integrin α5β1 was performed by indirect immunofluorescence using the mouse anti-integrin β1 and the rabbit anti-NL. […] Consequently, IP with polyclonal antibodies against NL was introduced to capture the complex of NL and integrin β1. Unfortunately, integrin β1 cannot be detected in the precipitate, implying that the interaction between NL and integrin β1 is indirect. […] Therefore, we speculate that ES may interfere with cell motility and adhesion mediated by NL-myosin complex. It is plausible that cell surface NL and integrin α5β1 along with other proteins such as myosin form a huge complex which together serves as an integrated receptor for ES (see FIG. 6).

T1 sequence (P05556 21-798 limits assumed): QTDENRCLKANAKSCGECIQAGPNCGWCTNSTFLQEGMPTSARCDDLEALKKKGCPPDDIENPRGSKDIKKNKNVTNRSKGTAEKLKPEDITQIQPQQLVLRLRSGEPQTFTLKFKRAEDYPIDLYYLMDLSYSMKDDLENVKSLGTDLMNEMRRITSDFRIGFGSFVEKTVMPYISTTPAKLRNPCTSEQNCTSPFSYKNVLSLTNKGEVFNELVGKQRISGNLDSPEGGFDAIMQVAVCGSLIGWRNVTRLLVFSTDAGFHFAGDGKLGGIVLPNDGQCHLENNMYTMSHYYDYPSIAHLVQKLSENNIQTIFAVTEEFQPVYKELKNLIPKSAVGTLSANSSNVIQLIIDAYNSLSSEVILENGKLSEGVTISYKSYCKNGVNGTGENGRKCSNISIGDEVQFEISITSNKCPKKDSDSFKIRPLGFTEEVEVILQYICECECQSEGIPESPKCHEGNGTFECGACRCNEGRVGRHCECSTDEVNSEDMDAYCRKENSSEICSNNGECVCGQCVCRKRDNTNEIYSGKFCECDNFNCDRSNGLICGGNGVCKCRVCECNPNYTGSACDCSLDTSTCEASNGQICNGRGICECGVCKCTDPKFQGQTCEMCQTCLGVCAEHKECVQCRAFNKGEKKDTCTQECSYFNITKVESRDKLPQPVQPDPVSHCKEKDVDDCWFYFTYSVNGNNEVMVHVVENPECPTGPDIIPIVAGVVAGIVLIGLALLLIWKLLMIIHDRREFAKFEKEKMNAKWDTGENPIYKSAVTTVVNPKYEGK

B1: Nucleolin of human endothelial cells (cell surface NL and total endogenous NL of HMECs; NL of HUVECs) (receptor)
chain: not shown
notes: whole, on cells; Used for the native protein on intact cells, in Triton X-100 extracts of plasma membrane, in cell lysates and in isolated nuclei; also called NL (110 kDa)
As to B1, the binding result is “no binding”.
